According to PMC12040169 (PLOS Biology, 2025):
The other results are listed elsewhere or left out.

System: T1, C. trachomatis L2/434/Bu expressing GFP (CTL2-GFP)
T1 construct: L2/434/Bu GFP intracellular growth in HeLa cells
Set-up: species or system HeLa; C. trachomatis total inclusion area by high-content imaging, normalised to DMSO
Settings: total inclusion area; 28.5 h, 10 µM; inhibitor
Method in brief: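 After bulk GFP and resorufin fluorescence reads, cells were fixed, stained with Hoechst and imaged by high-content microscopy. Inclusion area and number (GFP) stood in for chlamydial growth, nuclei count (Hoechst) for host cell viability. MICs were derived as for the bulk readout.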

Structure (SMILES) | % of control remaining
CC1CCCN(CC(=O)NCc2ccc(OCC(N)=O)cc2)CC1 (centres unmarked) [CBK305755] | 85.2297
CC(C)OCC(O)Cn1c(N/N=C/c2ccccc2O)nc2c1c(=O)[nH]c(=O)n2C (centres unmarked) [CBK139853] | 92.044
O=C(O)c1ccccc1-c1ccccc1C(=O)Nc1ccc(O)cc1 [CBK286602] | 103.867
Cc1cc(C2CCCCCN2C(=O)c2ccc(F)cc2)on1 (centres unmarked) [CBK285447] | 87.9387
Cc1ccc(CN(Cc2cnc(C)n2C)CC2CCCO2)o1 (centres unmarked) [CBK283291] | 118.852
COc1ccccc1-c1ccc(C(=O)N(C)CCN(C)C)c(NCC2CC2)n1 [CBK106269] | 84.7759
O=C(NC(c1ccc(Cl)cc1)c1ccsc1)C1CCN(CCc2ccc(F)cc2)CC1 (centres unmarked) [CBK147976] | 89.5188
CCC1C(=O)N=C(SCC(=O)Nc2ncccn2)NC1=O (centres unmarked) [CBK263920] | 116.822
CC[C@H]1CN(S(=O)(=O)c2c(C)noc2C)CC[C@H]1CC(=O)Nc1nccs1 [CBK288779] | 109.641
CC(C)[C@H](CO)Nc1nc(-c2ccc3c(c2)OCO3)cn2ccnc12 [CBK038071] | 123.494
O=C(CN1CCN(Cc2ccccc2)CC1)Nc1ccc(C(F)(F)F)cc1Cl [CBK074781] | 94.9512
CCOCC1CCN(C(=O)c2ncsc2Nc2ccccc2)C1 (centres unmarked) [CBK304204] | 60.2896
CCCC(=O)N1CCC(c2nc3ccccc3cc2NC(C)=O)CC1 [CBK285258] | 108.836
COc1ccc(Nc2cc(-c3ccsc3)ncn2)cc1OC [CBK090820] | 144.535
COc1ccc(C(C)C)cc1-c1cc(Nc2cc(OC)c(OC)c(OC)c2)n2nccc2n1 [CBK037746] | 101.504
O=C(NCCN1CCC(O)(c2ccc(F)cc2)CC1)C1CC1 [CBK283164] | 89.7701
Cc1cc(S(=O)(=O)N2CCCC2)ccc1OCC(=O)O [CBK268289] | 123.661
O=C(CCC(=O)c1ccc(F)cc1)Nc1cccnc1 [CBK266901] | 114.819
CC1CC(=O)Nc2ccccc2N1C(=O)Cn1c(=O)cnc2ccccc21 (centres unmarked) [CBK297116] | 64.6507
CC1(C)[C@H](Cc2cc(CO)on2)C[C@@H]1NC(=O)C1CCCCC1 [CBK289235] | 128.831
O=C(CN1CCOCC1)Nc1sc2c(c1C(=O)Nc1ccc(Br)cc1)CCC2 [CBK265073] | 107.657
O=C(Nc1cccc(-c2nnn[nH]2)c1)c1ccc(Cl)c(Cl)c1 [CBK144713] | 107.631
CC1(c2[nH]nc(N)c2Cc2c(Cl)cccc2Cl)CC1 [CBK115483T] | 68.1208
Cc1noc([C@@H]2C[C@H](NC(=O)Nc3cccc(C#N)c3)CN2C)n1 [CBK288873] | 75.8277
CCN(CC)C(=O)Cn1nc(C)n2c(cc3oc(C)cc32)c1=O [CBK283609] | 95.2681
CC(NCc1ccncc1)=C1C(=O)c2ccccc2C1=O [CBK262890] | 97.6714
COCC1(O)CCN(Cc2sccc2Cl)CC1 [CBK304252] | 109.39

Structure (SMILES) | % of control remaining
CC1(C)CC(CCNC(=O)CCC(=O)O)(c2ccccc2)CCO1 (centres unmarked) [CBK218198] | 57.8361
Cc1cc(N2CCN(C(=O)c3ccsc3)CC2)nc(C(C)C)n1 [CBK304053] | 42.8713
Cc1c(CC(=O)O)c(=O)oc2cc(OCc3ccc(F)cc3)ccc12 [CBK286674] | 69.4741
O=C1CN(C(=O)NCC2COc3ccccc3O2)CCN1 (centres unmarked) [CBK155847] | 94.8008
COc1cc(C(=O)Nc2ccc3oc(-c4cccnc4)nc3c2)ccc1OCc1ccc(Cl)cc1 [CBK264037] | 106.138
Cn1cc(CNCC2CCCN2c2cccnn2)c(-c2cccnc2)n1 (centres unmarked) [CBK305326] | 31.0242
O=C(O)Cc1nc(-c2ccccc2)c(-c2ccccc2)s1 [CBK159470] | 95.935
Cc1ccc(C(F)(F)F)cc1NCc1csc(C2CCCO2)n1 (centres unmarked) [CBK305424] | 97.2869
Oc1cccc(Sc2nc3ccccc3nc2C(F)(F)F)c1 [CBK093780] | 110.251
CN(CCc1ccncc1)C(=O)CCc1cc(F)ccc1F [CBK304876] | 25.9779
O=C(O)CC(Cc1ccc(Cl)cc1)C(=O)Nc1ccc([N+](=O)[O-])cc1 (centres unmarked) [CBK261973] | 98.9913
COc1ccc(-c2cncc(N3CCN(c4cccc5[nH]ccc45)CC3)n2)cc1 [CBK066087] | 93.6831
COc1ccc(S(=O)(=O)N2CCN(Cc3ccc4c(c3)OCO4)CC2)c2ccccc12 [CBK074521] | 91.8541
CC(=O)Nc1cccc(CN(CCCO)c2ccccc2)c1 [CBK304833] | 41.2506
CN(C)C(=O)CC(O)c1cc2n(n1)CCN(Cc1cccs1)C2 (centres unmarked) [CBK306620] | 75.6841
Cc1ccccc1Nc1nc(N)nc(CN(CCC#N)CC2CCC2)n1 [CBK305308] | 69.8761
Nc1ccc(-c2nc(NC(=O)c3cccs3)cnc2-c2ccc(F)cc2)cc1 [CBK037597] | 154.358
OC(c1ccncc1)C(O)c1ccncc1 (centres unmarked) [CBK024254] | 72.5552
COc1ccc2sc(N(Cc3cccnc3)C(=O)C3COc4ccccc4O3)nc2c1 (centres unmarked) [CBK294424] | 99.262
Cn1cccc1CNCCN1CCOCC1 [CBK278187C] | 107.946
NS(=O)(=O)c1ccc(CCNC(=O)COc2ccc(Cl)cc2Cl)cc1 [CBK265694] | 103.326
CS(=O)(=O)c1ccc(-c2ccc3c(c2)C(=O)NC(C2CCN(C(=O)OCc4ccccc4)CC2)O3)cc1 (centres unmarked) [CBK156087] | 87.7501
Cc1ccn2c(F)c(C(=O)N3CCCCC3CN3CCOCC3)nc2c1 (centres unmarked) [CBK307028] | 47.1992
O=C(O)C(Cc1c[nH]c2ccccc12)N1C(=O)C2C3c4ccccc4C(c4ccccc43)C2C1=O (centres unmarked) [CBK265377] | 109.045
COC(=O)c1ccc(CN2CCN(CCN3C(=O)c4cccc5cccc(c45)C3=O)CC2)cc1 [CBK074518] | 96.3635
CCCn1ncc(C(=O)N2CCN(CC3CCCN(C)C3)CC2)c1C (centres unmarked) [CBK307122] | 89.8527
CCN1CCN(S(=O)(=O)c2cccc([N+](=O)[O-])c2)CC1 [CBK266675] | 97.0342

Structure (SMILES) | % of control remaining
COc1cncc(-c2cncc(N3CCN(CCN(C)C)CC3)n2)c1 [CBK065393] | 77.9788
CC1CCN(Cc2csc(NC(=O)CCn3c(-c4cccs4)n[nH]c3=S)n2)CC1 [CBK297892] | 75.538
Cc1c(Cl)cccc1N1CCN(S(=O)(=O)CC23CCC(CC2=O)C3(C)C)CC1 (centres unmarked) [CBK269257] | 124.63
O=C1NC2(CCc3ccccc31)CCN(C(=O)c1ccccn1)C2 (centres unmarked) [CBK283337] | 81.9338
Cc1c(C#N)c2ccc(O)c(CN(C)C)c2n1-c1ccccc1 [CBK094247C] | 90.0218
Cc1cc(NC(=O)CN(C)Cc2cnn(-c3ccccc3)c2)on1 [CBK305622] | 58.1104
COCCN(Cc1cnn(C)c1)Cc1cc(O)c2cc(F)ccc2n1 [CBK307359] | 83.2892
O=C(c1ncoc1-c1ccc(F)cc1)N1CCOCC1 [CBK282362] | 97.6817
CC1=CCCN(C(=O)C23CCOCC2CN(c2ncccn2)C3)C1 (centres unmarked) [CBK304743] | 99.2431
CS(=O)(=O)N1CCC(Nc2nc(-c3cccs3)nc3ccccc23)CC1 [CBK305987] | 76.6037
O=C(Cn1c(-c2cccs2)cc2cccnc21)NCc1cccnc1 [CBK282457] | 99.8
Cc1ccc(OCC(=O)N2N=C(CC(C)C)CC2(O)C(F)(F)F)cc1C (centres unmarked) [CBK293935] | 101.054
CCCNc1nccnc1-c1ccc(C(=O)N2CCN(C)CC2)cc1 [CBK036892] | 93.3742
CC(NC(=O)CCc1cc2n(n1)CCNC2)c1cn2ccsc2n1 (centres unmarked) [CBK306551] | 59.5455
CC(C)c1nc(C2CCCN(c3ncc(C#N)cc3Cl)C2)no1 (centres unmarked) [CBK304128] | 39.1228
CCn1cc(C2CN(S(=O)(=O)Cc3ccccc3)CCO2)cn1 (centres unmarked) [CBK304129] | 59.2413
CC1=CC(C)C(=S)NC(C)=C1 (centres unmarked) [CBK022735] | 95.9288
CCc1noc(CN2CCC(c3c[nH]c4ccc(OC)cc34)CC2)n1 [CBK305960] | 71.9931
Cc1nn(C)cc1CN1CCC(C(=O)NCCc2ccccc2)C1 (centres unmarked) [CBK281968] | 98.2255
O=c1cnnc(Nc2ccc(Nc3ccccc3)cc2)[nH]1 [CBK287921] | 76.7376
c1ccc2oc(-c3cncc(NCCCN4CCOCC4)n3)cc2c1 [CBK066045] | 85.3864
O=C(O)c1[nH]c2ccccc2c1C(c1cccs1)c1c(C(=O)O)[nH]c2ccccc12 [CBK267786] | 81.5028
CCOC(=O)C1=C(C(=O)OCC)SC(=C2C(=S)C(C)(C)N(C(=O)c3ccc4ccccc4c3)c3ccccc32)S1 [CBK261643] | 87.4403
O=C(C1CCCC1)N1CCCC(c2cc3cccnc3[nH]2)C1 (centres unmarked) [CBK284979] | 73.2874
Cc1ccc2[nH]c(CNC(=O)c3cn[nH]c3C3CCCCN3)nc2c1 (centres unmarked) [CBK304741] | 37.6594
CCOC(=O)c1ccc(NCc2c(O)ccc3oc4c(c23)CCCC4)cc1 [CBK160394] | 80.4307
